# Experimental data: ChEMBL document CHEMBL4689842, “EUbOPEN Chemogenomics Library wave 1” (2021)
# Assays:
# Assay type in all cases: toxicity, cell-based
# Fibroblast = assay: Multiplex assay against human fibroblast
# Procedure, shortened: (§1)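 Imaging took place on a CQ1 microscope at 37°C and 5% CO2 once compound had been added to live cells stained at seeding with Hoechst33342, BioTracker Green Microtubule Cytoskeleton Dye, MitoTracker Red and Annexin V Alexa Fluor 680. CellPathfinder machine-learning gating classed cells as Hoechst high-intensity objects or normal cells, classed normal cells as having healthy, pyknosed or fragmented nuclei, and classed pyknosed cells as mitotic or apoptotic. Tubulin, mitochondrial-mass and membrane-permeability phenotypes are per cents of the healthy-nucleus cells.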
# HEK-293T = assay: Multiplex assay against HEK293T; settings: human; procedure, shortened: as §1;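 on Population Tubulin-Different-Phenotype (%): share of the cells with healthy nuclei that show this phenotype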
# U2OS = assay: Multiplex assay against U2OS; settings: human; procedure, shortened: as §1
# [1] = 12 h, 10 µM, compound concentration 10 uM, replicate 1
# [2] = 12 h, 10 µM, compound concentration 10 uM, replicate 2
# [3] = 24 h, 10 µM, compound concentration 10 uM, replicate 1
# [4] = 24 h, 10 µM, compound concentration 10 uM, replicate 2
# [5] = 12 h, 1 µM, compound concentration 1 uM, replicate 1
# [6] = 12 h, 1 µM, compound concentration 1 uM, replicate 2
# [7] = 24 h, 1 µM, compound concentration 1 uM, replicate 1
# [8] = 24 h, 1 µM, compound concentration 1 uM, replicate 2
structure (smiles),measurement,setting,value
CCOCCn1cc(C(=O)Nc2ccc(-n3nc(-c4cccnc4)cc3C(F)(F)F)cn2)ccc1=O [BI 1935],Population Mitochondria Different-Phenotype (%),Fibroblast; [1],54% and 6%
same,Population Mitotic Cells (%),Fibroblast; [1],"14%, 47%, 38%"
same,Population Tubulin-Different-Phenotype (%),Fibroblast; [1],"90%, 26%, 6%"
same,Total Cell Count,Fibroblast; [1],"91, 305, 229"
same,Population Fragmented Nuclei (%),Fibroblast; [2],"61%, 62%, 8%"
same,Population Healthy Nuclei (%),Fibroblast; [2],"34%, 18%, 65%"
same,Population Hoechst High Intensity Objects (%),Fibroblast; [2],"37%, 39%, 7%"
same,Population Mitochondria Different-Phenotype (%),Fibroblast; [2],"5%, 0%, 47%"
same,Population Mitotic Cells (%),Fibroblast; [2],"0%, 57%, 52%"
same,Population Pyknosed Nuclei (%),Fibroblast; [2],"4%, 18%, 26%"
same,Population Mitochondria Different-Phenotype (%),Fibroblast; [3],"40%, 8%, 0%"
same,Population Tubulin-Different-Phenotype (%),Fibroblast; [3],"91%, 31%, 4%"
same,Total Cell Count,Fibroblast; [3],"89, 292, 238"
same,Population Fragmented Nuclei (%),Fibroblast; [4],"48%, 54%, 9%"
same,Population Hoechst High Intensity Objects (%),Fibroblast; [4],39% and 8%
same,Population Membrane Permeable-Phenotype (%),Fibroblast; [4],"5%, 22%, 10%"
same,Population Mitochondria Different-Phenotype (%),Fibroblast; [4],"5%, 11%, 50%"
same,Population Pyknosed Nuclei (%),Fibroblast; [4],"6%, 20%, 23%"
same,Population Apoptotic (%),HEK-293T; [1],"69%, 21%, 16%"
same,Population Mitochondria Different-Phenotype (%),HEK-293T; [1],"95%, 14%, 6%"
same,Population Pyknosed Nuclei (%),HEK-293T; [1],"57%, 33%, 18%"
same,Population Tubulin-Different-Phenotype (%),HEK-293T; [1],"95%, 37%, 6%"
same,Population Apoptotic (%),HEK-293T; [2],"28%, 15%, 5%"
same,Population Hoechst High Intensity Objects (%),HEK-293T; [2],"8%, 3%, 2%"
same,Population Mitochondria Different-Phenotype (%),HEK-293T; [2],"69%, 33%, 7%"
same,Population Pyknosed Nuclei (%),HEK-293T; [2],"66%, 11%, 4%"
same,Population Tubulin-Different-Phenotype (%),HEK-293T; [2],"72%, 70%, 7%"
same,Total Cell Count,HEK-293T; [2],"216, 1064, 1871"
same,Population Apoptotic (%),HEK-293T; [3],"70%, 24%, 19%"
same,Population Membrane Permeable-Phenotype (%),HEK-293T; [3],3% and 11%
same,Population Mitochondria Different-Phenotype (%),HEK-293T; [3],"95%, 16%, 5%"
same,Population Pyknosed Nuclei (%),HEK-293T; [3],"46%, 20%, 8%"
same,Population Tubulin-Different-Phenotype (%),HEK-293T; [3],"94%, 58%, 7%"
same,Population Apoptotic (%),HEK-293T; [4],"46%, 11%, 1%"
same,Population Fragmented Nuclei (%),HEK-293T; [4],"4%, 5%, 26%"
same,Population Membrane Permeable-Phenotype (%),HEK-293T; [4],"6%, 15%, 4%"
same,Population Mitochondria Different-Phenotype (%),HEK-293T; [4],"68%, 22%, 1%"
same,Population Pyknosed Nuclei (%),HEK-293T; [4],"51%, 6%, 1%"
same,Population Tubulin-Different-Phenotype (%),HEK-293T; [4],"83%, 85%, 8%"
same,Total Cell Count,HEK-293T; [4],"217, 1367, 3188"
same,Population Fragmented Nuclei (%),U2OS; [1],16% and 4%
same,Population Membrane Permeable-Phenotype (%),U2OS; [1],"60%, 17%, 12%"
same,Population Mitochondria Different-Phenotype (%),U2OS; [1],"13%, 53%, 17%"
same,Population Pyknosed Nuclei (%),U2OS; [1],"11%, 20%, 3%"
same,Population Tubulin-Different-Phenotype (%),U2OS; [1],"57%, 71%, 17%"
same,Population Membrane Permeable-Phenotype (%),U2OS; [2],"56%, 8%, 10%"
same,Population Pyknosed Nuclei (%),U2OS; [2],"17%, 26%, 5%"
same,Population Tubulin-Different-Phenotype (%),U2OS; [2],"40%, 64%, 18%"
same,Population Fragmented Nuclei (%),U2OS; [3],23% and 4%
same,Population Membrane Permeable-Phenotype (%),U2OS; [3],"16%, 40%, 8%"
same,Population Pyknosed Nuclei (%),U2OS; [3],"13%, 8%, 3%"
same,Population Tubulin-Different-Phenotype (%),U2OS; [3],"59%, 36%, 17%"
same,Population Membrane Permeable-Phenotype (%),U2OS; [4],"42%, 10%, 6%"
same,Population Pyknosed Nuclei (%),U2OS; [4],23% and 4%
C[C@@]1(C(=O)Nc2ccc(F)nc2)CCCN1c1nc(Nc2cc(C3CC3)n[nH]2)c2cccn2n1 [BMS-754807],Population Membrane Permeable-Phenotype (%),Fibroblast; [1],37% and 12%
same,Population Mitochondria Different-Phenotype (%),Fibroblast; [1],25% and 3%
same,Population Tubulin-Different-Phenotype (%),Fibroblast; [1],85% and 6%
same,Population Fragmented Nuclei (%),Fibroblast; [2],54% and 15%
same,Population Mitochondria Different-Phenotype (%),Fibroblast; [2],17% and 70%
same,Population Mitotic Cells (%),Fibroblast; [2],20% and 66%
same,Population Pyknosed Nuclei (%),Fibroblast; [2],8% and 26%
same,Population Tubulin-Different-Phenotype (%),Fibroblast; [2],21% and 88%
same,Population Mitochondria Different-Phenotype (%),Fibroblast; [3],23% and 1%
same,Population Tubulin-Different-Phenotype (%),Fibroblast; [3],82% and 4%
same,Population Fragmented Nuclei (%),Fibroblast; [4],63% and 17%
same,Population Hoechst High Intensity Objects (%),Fibroblast; [4],31% and 9%
same,Population Membrane Permeable-Phenotype (%),Fibroblast; [4],6% and 22%
same,Population Pyknosed Nuclei (%),Fibroblast; [4],8% and 34%
same,Population Tubulin-Different-Phenotype (%),Fibroblast; [4],18% and 77%
same,Population Apoptotic (%),HEK-293T; [1],73% and 16%
same,Population Healthy Nuclei (%),HEK-293T; [1],15% and 59%
same,Population Mitochondria Different-Phenotype (%),HEK-293T; [1],96% and 15%
same,Population Mitotic Cells (%),HEK-293T; [1],26% and 84%
same,Population Tubulin-Different-Phenotype (%),HEK-293T; [1],87% and 23%
same,Population Apoptotic (%),HEK-293T; [2],48% and 15%
same,Population Healthy Nuclei (%),HEK-293T; [2],11% and 88%
same,Population Mitochondria Different-Phenotype (%),HEK-293T; [2],100% and 22%
same,Population Pyknosed Nuclei (%),HEK-293T; [2],80% and 7%
same,Total Cell Count,HEK-293T; [2],182 and 940
same,Population Healthy Nuclei (%),HEK-293T; [3],14% and 74%
same,Population Mitochondria Different-Phenotype (%),HEK-293T; [3],100% and 11%
same,Population Pyknosed Nuclei (%),HEK-293T; [3],67% and 11%
same,Population Apoptotic (%),HEK-293T; [4],69% and 18%
same,Population Healthy Nuclei (%),HEK-293T; [4],24% and 86%
same,Population Mitochondria Different-Phenotype (%),HEK-293T; [4],85% and 9%
same,Population Pyknosed Nuclei (%),HEK-293T; [4],68% and 4%
same,Total Cell Count,HEK-293T; [4],183 and 988
same,Population Tubulin-Different-Phenotype (%),U2OS; [1],89% and 14%
same,Population Pyknosed Nuclei (%),U2OS; [2],26% and 7%
same,Population Tubulin-Different-Phenotype (%),U2OS; [2],88% and 22%
same,Population Tubulin-Different-Phenotype (%),U2OS; [3],17% and 83%
same,Population Apoptotic (%),U2OS; [4],37% and 10%
Cn1cc(C2=C(c3cn(C4CCN(Cc5ccccn5)CC4)c4ccccc34)C(=O)NC2=O)c2ccccc21 [ENZASTAURIN],Population Hoechst High Intensity Objects (%),Fibroblast; [5],15% and 66%
same,Population Mitochondria Different-Phenotype (%),Fibroblast; [5],6% and 28%
same,Population Tubulin-Different-Phenotype (%),Fibroblast; [5],18% and 70%
same,Population Tubulin-Different-Phenotype (%),Fibroblast; [6],16% and 73%
same,Population Hoechst High Intensity Objects (%),Fibroblast; [7],71% and 16%
same,Population Mitochondria Different-Phenotype (%),Fibroblast; [7],68% and 5%
same,Population Tubulin-Different-Phenotype (%),Fibroblast; [7],72% and 11%
same,Population Mitochondria Different-Phenotype (%),Fibroblast; [8],15% and 85%
same,Population Mitotic Cells (%),Fibroblast; [8],66% and 9%
same,Population Pyknosed Nuclei (%),Fibroblast; [8],6% and 30%
same,Population Tubulin-Different-Phenotype (%),Fibroblast; [8],15% and 85%
same,Population Mitochondria Different-Phenotype (%),HEK-293T; [5],10% and 52%
same,Population Tubulin-Different-Phenotype (%),HEK-293T; [5],23% and 79%
same,Population Mitochondria Different-Phenotype (%),HEK-293T; [7],78% and 12%
same,Population Apoptotic (%),HEK-293T; [8],31% and 6%
same,Population Mitochondria Different-Phenotype (%),HEK-293T; [8],81% and 8%
same,Population Pyknosed Nuclei (%),HEK-293T; [8],10% and 3%
same,Population Mitochondria Different-Phenotype (%),U2OS; [5],95% and 16%
same,Population Pyknosed Nuclei (%),U2OS; [5],49% and 12%
same,Population Mitochondria Different-Phenotype (%),U2OS; [6],98% and 18%
same,Population Healthy Nuclei (%),U2OS; [7],16% and 80%
same,Population Hoechst High Intensity Objects (%),U2OS; [7],16% and 3%
same,Population Membrane Permeable-Phenotype (%),U2OS; [7],95% and 20%
same,Population Mitochondria Different-Phenotype (%),U2OS; [7],100% and 10%
same,Population Mitotic Cells (%),U2OS; [7],10% and 46%
same,Population Pyknosed Nuclei (%),U2OS; [7],68% and 13%
same,Population Tubulin-Different-Phenotype (%),U2OS; [7],100% and 25%
same,Population Healthy Nuclei (%),U2OS; [8],19% and 79%
same,Population Mitochondria Different-Phenotype (%),U2OS; [8],95% and 18%
same,Population Pyknosed Nuclei (%),U2OS; [8],65% and 12%
O=C(NCCN1CCOCC1)c1ccc2c(c1)C(=O)c1ccc(Nc3ccc(F)c(NC(=O)c4ccccc4)c3)cc1CC2 [FS-694],Population Hoechst High Intensity Objects (%),Fibroblast; [1],18% and 70%
same,Population Membrane Permeable-Phenotype (%),Fibroblast; [1],5% and 17%
same,Population Mitochondria Different-Phenotype (%),Fibroblast; [1],6% and 1%
same,Population Normal (%),Fibroblast; [2],55% and 17%
same,Population Tubulin-Different-Phenotype (%),Fibroblast; [2],36% and 10%
same,Total Cell Count,Fibroblast; [2],126 and 915
same,Population Hoechst High Intensity Objects (%),Fibroblast; [3],65% and 19%
same,Total Cell Count,Fibroblast; [4],120 and 859
same,Population Hoechst High Intensity Objects (%),HEK-293T; [1],58% and 14%
same,Population Hoechst High Intensity Objects (%),HEK-293T; [2],23% and 3%
same,Population Fragmented Nuclei (%),HEK-293T; [3],41% and 10%
same,Population Healthy Nuclei (%),HEK-293T; [3],24% and 73%
same,Population Hoechst High Intensity Objects (%),HEK-293T; [3],56% and 10%
same,Population Apoptotic (%),HEK-293T; [4],9% and 39%
same,Population Hoechst High Intensity Objects (%),HEK-293T; [4],4% and 30%
same,Population Membrane Permeable-Phenotype (%),HEK-293T; [4],19% and 6%
same,Population Mitochondria Different-Phenotype (%),HEK-293T; [4],11% and 70%
same,Population Pyknosed Nuclei (%),HEK-293T; [4],4% and 36%
same,Population Fragmented Nuclei (%),U2OS; [1],7% and 31%
same,Population Hoechst High Intensity Objects (%),U2OS; [1],4% and 46%
same,Population Apoptotic (%),U2OS; [2],39% and 10%
same,Population Hoechst High Intensity Objects (%),U2OS; [2],52% and 10%
same,Population Mitochondria Different-Phenotype (%),U2OS; [2],61% and 14%
same,Population Tubulin-Different-Phenotype (%),U2OS; [2],83% and 23%
same,Population Fragmented Nuclei (%),U2OS; [3],28% and 7%
same,Population Hoechst High Intensity Objects (%),U2OS; [3],44% and 4%
same,Population Mitochondria Different-Phenotype (%),U2OS; [3],73% and 17%
same,Population Tubulin-Different-Phenotype (%),U2OS; [3],89% and 29%
same,Population Hoechst High Intensity Objects (%),U2OS; [4],52% and 8%
same,Population Mitochondria Different-Phenotype (%),U2OS; [4],77% and 24%
same,Population Tubulin-Different-Phenotype (%),U2OS; [4],87% and 12%

# For part of its entries the source gives two or more results. The other results are left out here. The source may hold further records. The values listed for one entry repeat one measurement (runs, samples, wells, individuals or studies).
